# From a collection of fitness landscapes (doi:10.1126/science.1257360)
# Some of the results follow.
# B1: PhoQ; a variant is named by its letters at X, in order, P23837 (parent)
# chain: MKKLLRLFFPLSLRVRFLLATAAVVLVLSLAYGMVALIGYSVSFDKTTFRLLRGESNLFYTLAKWENNKLHVELPENIDKQSPTMTLIYDENGQLLWAQRDVPWLMKMIQPDWLKSNGFHEIEADVNDTSLLLSGDHSIQQQLQEVREDDDDAEMTHSVAVNVYPATSRMPKLTIVVVDTIPVELKSSYMVWSWFIYVLSANLLLVIPLLWVAAWWSLRPIEALAKEVRELEEHNRELLNPATTRELTSLVRNLNRLLKSERERYDKYRTTLTDLTHSLKTPLXXLQXXLRSLRSEKMSVSDAEPVMLEQISRISQQIGYYLHRASMRGGTLLSRELHPVAPLLDNLTSALNKVYQRKGVNISLDISPEISFVGEQNDFVEVMGNVLDNACKYCLEFVEISARQTDEHLYIVVEDDGPGIPLSKREVIFDRGQRVDTLRPGQGVGLAVAREITEQYEGKIVAGESMLGGARMEVIFGRQHSAPKDE
# Variants of: B1
# Assay: enrichment ratio after two sorts for PhoP signalling (ratio (wild type AVST 3.29)); higher = more functional
# Conditions: with PhoP (E. coli)
row,Variant,enrichment ratio
1,ALMF,3.38
2,FERM,≤ 0.25
3,DPQP,≤ 0.25
4,GHTY,≤ 0.25
5,FFQQ,≤ 0.25
6,KKHF,≤ 0.25
7,RQTV,≤ 0.25
8,ALKL,≤ 0.25
9,QNSL,2.32
10,DFTH,≤ 0.25
11,DKRW,≤ 0.25
12,EQYT,≤ 0.25
13,VPSS,≤ 0.25
14,GTTQ,≤ 0.25
15,WFVN,≤ 0.25
16,WHLH,≤ 0.25
17,KQPW,≤ 0.25
18,QNTC,≤ 0.25
19,YWVT,≤ 0.25
20,RMNN,≤ 0.25
21,PMCH,≤ 0.25
22,KRNR,≤ 0.25
23,VHTL,≤ 0.25
24,VIVW,≤ 0.25
25,LNDN,≤ 0.25
26,WDGF,≤ 0.25

row,Variant,enrichment ratio
1,DIRC,≤ 0.25
2,YWRC,≤ 0.25
3,RFPR,≤ 0.25
4,EYCW,≤ 0.25
5,FHGK,≤ 0.25
6,EVPC,≤ 0.25
7,KVEV,≤ 0.25
8,MDPV,≤ 0.25
9,AFPS,≤ 0.25
10,LFRW,≤ 0.25
11,AWDP,≤ 0.25
12,LWGA,≤ 0.25
13,GFSH,≤ 0.25
14,QKGT,≤ 0.25
15,YQHQ,≤ 0.25
16,HWYV,≤ 0.25
17,HLGG,≤ 0.25
18,AKWT,≤ 0.25
19,QNLY,≤ 0.25
20,RPAP,≤ 0.25
21,VKQK,≤ 0.25
22,FQYA,≤ 0.25
23,NCWP,≤ 0.25
24,HMII,≤ 0.25
25,HLRF,≤ 0.25
26,DTVG,≤ 0.25

row,Variant,enrichment ratio
1,DDCT,≤ 0.25
2,VKND,≤ 0.25
3,WTRT,≤ 0.25
4,QEIR,≤ 0.25
5,VNYP,≤ 0.25
6,QDHI,≤ 0.25
7,KRYI,≤ 0.25
8,GHHK,≤ 0.25
9,RHVV,≤ 0.25
10,GTAF,≤ 0.25
11,MCEP,≤ 0.25
12,HQRE,≤ 0.25
13,VMYQ,≤ 0.25
14,YGWD,≤ 0.25
15,TMTE,3.5
16,HTRT,≤ 0.25
17,ERGY,≤ 0.25
18,KVRA,≤ 0.25
19,GEAV,8.19
20,THKT,≤ 0.25
21,MTDS,≤ 0.25
22,PAWW,≤ 0.25
23,VIWT,≤ 0.25
24,IHAC,≤ 0.25
25,RAPL,≤ 0.25
26,TWAI,≤ 0.25

row,Variant,enrichment ratio
1,IMTD,2.94
2,WQPQ,≤ 0.25
3,SRVE,≤ 0.25
4,HLSC,≤ 0.25
5,WHYA,≤ 0.25
6,GMSD,≤ 0.25
7,YGSW,≤ 0.25
8,KVDF,≤ 0.25
9,SLPC,≤ 0.25
10,SQGT,2.21
11,ADYI,≤ 0.25
12,DYCK,≤ 0.25
13,PLKH,≤ 0.25
14,WRGI,≤ 0.25
15,QRGL,≤ 0.25
16,TNLM,2.74
17,NTTG,≤ 0.25
18,KPSD,≤ 0.25
19,TRGQ,0.26
20,GKSK,≤ 0.25
21,QITN,≤ 0.25
22,QSHK,≤ 0.25
23,PIIT,≤ 0.25
24,NILS,3.43
25,VNRA,≤ 0.25
26,RIRA,≤ 0.25

row,Variant,enrichment ratio
1,HKTL,≤ 0.25
2,EQPH,≤ 0.25
3,RRAM,≤ 0.25
4,YNCD,0.422
5,YIPM,≤ 0.25
6,VVCN,≤ 0.25
7,HCLK,≤ 0.25
8,TVDW,≤ 0.25
9,QAPK,≤ 0.25
10,WMAM,≤ 0.25
11,HPGW,≤ 0.25
12,WFDK,≤ 0.25
13,DQHV,≤ 0.25
14,ENQS,≤ 0.25
15,KCMI,≤ 0.25
16,FDML,≤ 0.25
17,VMLD,≤ 0.25
18,LAHE,≤ 0.25
19,ISEW,≤ 0.25
20,TECQ,12.3
21,GFYG,≤ 0.25
22,SFDE,≤ 0.25
23,PKCD,≤ 0.25
24,MMSW,≤ 0.25
25,AMPA,≤ 0.25
26,LISV,≤ 0.25

row,Variant,enrichment ratio
1,IREH,≤ 0.25
2,NFYV,≤ 0.25
3,GFAI,≤ 0.25
4,DTRD,≤ 0.25
5,AWNV,≤ 0.25
6,QKHH,≤ 0.25
7,GQFI,≤ 0.25
8,WPTV,≤ 0.25
9,FRDH,≤ 0.25
10,MLFH,≤ 0.25
11,TCYA,1.75
12,YTLY,1.95
13,FMSH,≤ 0.25
14,ASIV,11.4
15,IPPG,≤ 0.25
16,SRSG,≤ 0.25
17,MMSQ,≤ 0.25
18,RMDH,≤ 0.25
19,PPPT,≤ 0.25
20,RVAA,≤ 0.25
21,TARG,≤ 0.25
22,NEHD,≤ 0.25
23,RDLE,≤ 0.25
